Reference: PubChem BioAssay AID686971 (National Center for Advancing Translational Sciences (NCATS), 2013)
In all, about 360,000 compounds went through this assay and about 7,500 (2.1%) were called active. The inconclusive results got no clear call from the source; some entries with a clear call stand among them for comparison. Calls follow the shape of the dose curve; as a rule, active = well fitted cell-killing curve with a large enough effect; inconclusive = small, poorly fitted or top-dose-only effect, or effect the other way, or another doubt; inactive = no such curve, though single readings can be large or run the other way. Potencies of inconclusive entries are left out as doubtful fits.

assay: qHTS for induction of synthetic lethality in tumor cells producing 2HG: qHTS for the HT-1080-IDH1KD cell line; conditions: HT-1080 IDH1 knockdown viability, ATP luminescence, 48 h; activity, negative = toxicity: at 46.1 µM (top of the series) unless noted;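 as to activity, negative = toxicity: 0% = DMSO wells and -100% = cell-free medium wells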
Outline: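 Luminescent ATP read-out (CellTiter-Glo, 10 min at room temperature) after 48 h compound exposure at 37 °C gave viability of IDH1-knockdown HT-1080 cells. Activity was normalised to DMSO and cell-free wells, then fitted as concentration-response curves.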
Potency is read from the fitted curve at half-maximal effect; tags tell the direction and shape of the fitted curve.

Compound	Potency	activity, negative = toxicity
C#CC(=O)N(c1ccc(OC)c(OC)c1)C(C(=O)NC1CCCC1)c1cccs1 (stereo not drawn)	active: 0.58 µM	–
Cc1ccc(/C=N/NC(=O)c2cccc3ccccc23)o1	inconclusive [cytotoxic, single point]	–
Cc1ccc(Cn2nnc3c(=O)[nH]c(C4CCN(S(=O)(=O)c5ccc(S(=O)(=O)NC6CC6)cc5)CC4)nc32)cc1	inconclusive [cytotoxic, single point]	–
CC(=O)NS(=O)(=O)c1ccc(NC(=S)NC(=O)C2CCC2)cc1	inactive	–
CCn1ccnc1CN(C)Cc1nc(CCC(C)C)no1	inactive	–
CCN(CC)c1ccc2cc(NC(=O)CCC(=O)O)c(=O)oc2c1	inactive	–
CC1(C)CC(C(CCN(Cc2ccccc2)C(=O)c2ccco2)c2ccc(F)cc2)CCO1 (stereo not drawn)	inconclusive [cytotoxic, single point]	–
Cc1ccccc1NC(=O)Nc1ccc(C(F)(F)F)cc1	inconclusive [cytotoxic, partial curve]	–
COc1ccc(Cc2nc3ccccc3[nH]2)cc1OC	inactive	–
O=C1c2cc(F)ccc2-n2c1nc1ccccc1c2=O	inconclusive [cytotoxic, partial curve, poor fit]	–
C/C(=N\NC(=O)CC1N=C(Cc2ccccc2)NNC1=O)c1ccc(C)cc1 (stereo not drawn)	inconclusive [cytotoxic, partial curve]	–
CC(=O)N(Cc1ccc(F)cc1)C1=C(NCCc2ccccc2)C(=O)c2ccccc2C1=O	active: 5.17 µM	–
CC(C)CN(Cc1c(O)ccc2ccccc12)CC(C)C	inactive	–
COc1ccc(NC(=O)c2cccc(Oc3ccccc3)c2)cn1	active: 3.66 µM	–
Cc1ccc(S(=O)(=O)N2C(=O)c3cccc4cccc2c34)cc1	inconclusive [cytotoxic, single point]	–
Cc1ccc(CN2CCSc3ccc(C(=O)NCc4ccco4)cc32)cc1	inconclusive [cytotoxic, partial curve, poor fit]	–
Cc1[nH]c2ccccc2c1/C=C(\C#N)C(=O)NCc1ccccc1	–	inconclusive: -32% [cytotoxic]
O=C(CCNS(=O)(=O)c1ccccc1)N1CCN(c2ccccc2)CC1	inactive	–
O=C(NCc1ccccc1)c1cc(C2CCCCN2S(=O)(=O)c2cccc3cccnc23)on1 (stereo not drawn)	inconclusive [cytotoxic, single point]	–
NC(=O)CC(NC(=O)c1ccccc1)c1ccc(N2CCN(c3ccccc3)CC2)c([N+](=O)[O-])c1 (stereo not drawn)	inactive	–
CN1CCN(c2ccc(NC(=O)c3ccc(Oc4ccccc4)cc3)cc2)CC1	inconclusive [cytotoxic, single point]	–
CN(Cc1ccccc1)C(=O)c1cc(-c2ccc(Br)cc2)on1	inactive	–
CNC(=O)c1nnsc1S(=O)(=O)c1ccc(Cl)cc1	active: 2.91 µM	–
Cc1cccc(NC(=O)COC(=O)CN2C(=O)c3ccccc3C2=O)c1	inactive	–

Compound	Potency	activity, negative = toxicity
C[C@H](O)[C@@H]1CN2CCc3c([nH]c4ccccc34)[C@@H]2C[C@@H]1N(C)C(=O)Nc1ccc(Br)cc1	inconclusive [cytotoxic, single point]	–
Cc1c(C(=O)Nc2ccncc2)sc2nc(-c3ccc(F)cc3)cn12	inconclusive [cytotoxic, single point]	–
Cc1cccc(C)c1-n1nnnc1C(c1ccnc2ccccc12)N(CCN(C)C)Cc1ccccc1 (stereo not drawn)	active: 20.6 µM	–
CCN(CC)CCN(C(=O)Cn1nnc(-c2ccc(C)o2)n1)C(C(=O)NC(C)(C)C)c1cccs1 (stereo not drawn)	inactive	–
CCOC(=O)N/N=C/c1cn(Cc2ccc(Cl)cc2)c2ccccc12	inactive	–
CCOC(=O)/C=c1\s/c(=C\c2c(OC)ccc3ccccc23)c(=O)n1CC(=O)NCC1CCCO1 (stereo not drawn)	active: 7.94 µM	–
COc1cc2c(cc1OC)CN(C(=O)CSc1nc(N)c(C#N)cc1C#N)CC2	inactive	–
CN1CCC(OC(=O)COc2ccc(F)cc2)CC1	inactive	–
Cc1cccc(NC(=S)NCc2cccn2C)c1	inconclusive [cytotoxic, single point]	–
CN1C(=O)C(CC(=O)Nc2ccc(F)cc2)N(CCCc2ccccc2)C1=S (stereo not drawn)	inconclusive [cytotoxic, partial curve]	–
CCOc1ccc(OCCC(=O)OCC(=O)Nc2ccc3c(c2)OCCO3)cc1	inactive	–
COc1ccc(CC2=C(O)c3ccccc3C(=O)C2=O)cc1	inconclusive [cytotoxic, partial curve, poor fit]	–
COC(=O)c1ccccc1Sc1c(/C=N/OCc2ccc(Cl)cc2)c(C(F)(F)F)nn1C	inconclusive [cytotoxic, single point]	–
COc1cccc(Nc2nc(C(N)CC(C)C)cs2)n1 (stereo not drawn)	active: 16.4 µM	–
CCN(c1ccccc1)S(=O)(=O)c1ccc(C(=O)Nc2nnc(COC)o2)cc1	inconclusive [cytotoxic, partial curve]	–
OC(c1ccc(Cl)c(F)c1)c1ncc(-c2ccccc2F)[nH]1 (stereo not drawn)	inconclusive [cytotoxic, single point]	–
COc1cc(C2c3c(-c4ccccc4)n[nH]c3C(=O)N2c2ccccc2)ccc1O (stereo not drawn)	inactive	–
COc1cc(/C=C(/C(=O)O)c2ccc(-c3ccccc3)cc2)cc(OC)c1OC	active: 9.2 µM	–
O=C(CC1Sc2ccccc2NC1=O)NNc1ccc(Cl)cc1Cl (stereo not drawn)	inconclusive [cytotoxic, single point]	–
COc1ccc(NC(=O)C2(C)Cc3c(-c4cccc(NC(C)=O)c4)ccnc3O2)cc1OC (stereo not drawn)	active: 14.6 µM	–
O=C(/C=C/NNC(=O)c1ccccc1O)c1ccccc1	inconclusive [cytotoxic, single point]	–
O=C(Nc1nnc([C@@H]2C[C@H](O)[C@@H](CO)O2)s1)Nc1ccccc1Oc1ccccc1	inactive	–
Cc1ccc(S(=O)(=O)NCC(=O)N(c2ccccc2)C(C(=O)NCc2ccccc2)c2ccco2)cc1 (stereo not drawn)	inactive	–
COc1cccc(N=Cc2ccc(O)cc2O)c1	inconclusive [cytotoxic, single point]	–
